B1: GLP-2 peptibody L (Fc fusion)
chain: HGDGSFSDEMNTILDNLAARDFINWLIQTKITDGGGGGGG[letters of human IgG1 Fc with changes left out]
notes: GLP-2[A2G]-GGGGGGG-IgG1 Fc (LALA)
B2: GLP-2 peptibody A (Fc fusion)
chain: HGDGSFSDEMNTILDNLAARDFINWLIQTKITD[letters of human IgG1 Fc with changes left out]
B3: GLP-2 peptibody M (Fc fusion)
chain: HGDGSFSDEMNTILDNLAARDFINWLIQTKITDGGGGSGGGGS[letters of human IgG1 Fc with changes left out]
notes: GLP-2[A2G]-(GGGGS)2-IgG1 Fc (LALA)
B4: GLP-2 peptibody E (Fc fusion)
chain: HGDGSFSDEMNTILDNLAARDFINWLIQTKITDGGGGGGSGGGGSGGGGS[letters of human IgG1 Fc with changes left out]
B5: GLP-2 peptibody J (Fc fusion)
chain: HGDGSFSDEMNTILDNLAARDFINWLIQTKITDGAPGGGGGAAAAAGGGGGGAPGGGGGAAAAAGGGGGGAPGGGGGAAAAAGGGGGGAP[letters of human IgG1 Fc with changes left out]
notes: GLP-2[A2G]-long GAP/G/A linker-IgG1 Fc (LALA)

The target of this assay is T1, human GLP-2 receptor (human, UniProt O95838 1-553).
T1 sequence (looked up): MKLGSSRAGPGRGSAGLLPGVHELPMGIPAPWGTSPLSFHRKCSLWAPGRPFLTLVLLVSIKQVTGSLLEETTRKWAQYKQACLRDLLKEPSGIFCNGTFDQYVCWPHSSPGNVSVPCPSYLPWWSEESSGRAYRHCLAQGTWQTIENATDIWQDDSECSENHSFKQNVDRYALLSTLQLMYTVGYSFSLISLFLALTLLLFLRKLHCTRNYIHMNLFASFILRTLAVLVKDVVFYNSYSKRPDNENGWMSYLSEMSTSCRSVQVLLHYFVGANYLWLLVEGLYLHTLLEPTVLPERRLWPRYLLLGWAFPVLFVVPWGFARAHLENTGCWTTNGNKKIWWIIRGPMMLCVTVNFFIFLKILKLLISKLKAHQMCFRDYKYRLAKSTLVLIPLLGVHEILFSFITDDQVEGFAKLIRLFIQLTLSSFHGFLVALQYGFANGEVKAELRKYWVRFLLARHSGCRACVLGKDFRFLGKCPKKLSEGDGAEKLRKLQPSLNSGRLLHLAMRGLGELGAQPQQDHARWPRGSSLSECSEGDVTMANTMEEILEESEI
Nature of the assay: cell-based or functional assay.
Turning to B1, the “EC50 (nM), cAMP Hunter eXpress GLP2R CHO-K1 GPCR assay” value (from here on “EC50 (nM)”) came to 6.16 nM.

Take B2: the “EC50 (nM)” value amounted to 128 nM.

In the case of B3, the “EC50 (nM)” value was determined as 4.51 nM.

As for B4, the “EC50 (nM)” value was 2.43 nM.

For B5, the “EC50 (nM)” value stood at 3.23 nM.

These data come from patent publication US20200199192A1 (SHIRE NPS PHARMACEUTICALS, published 2020).
